Our source for the self-cleavage values is the RNAGym collection of RNA variant scans (doi:10.7554/elife.90254).

Read counts are not given, so values of variants with three or more changes are uncertain.

B1: LINE1-full (parent)
chain: UACGUAGGUGGUUUUCCCCUGAUAGUGCUAAGGGGGCCUGGAAGUUUGGACUGGGCAGAGCUCAACACAGCGUGGCAAAGUGGCUGUGGCUAGACUGCCUCUCUGGAUUCCUCGUCACUCAGCAGGGCAUCUCUGAGAGAAAUGCC

The data set covers variants of B1. The experiment in a line: self-cleavage, relative activity (ratio to wild type); higher = more cleavage; in vitro, sequencing; the parent is a self-cleaving ribozyme.
As to U12C U46A U87C, the self-cleavage stood at 0.16. To U12C U39C U102A belongs 1.18; to U12C U39C A77U, 0.66. To U12C U39A U102C belongs 1.49.

Turning to U12C U14C C120A, the self-cleavage amounted to 1.28.

With U12C U46A A78C A94G U119C, the self-cleavage came out at 0.86. With U12C G25A G58A A77G A136G the figure was 0.11.

Consider U12C U47C U130G, for which the self-cleavage turned out to be 1.84.

Regarding U12C G49A A67G A94G, the self-cleavage came to 0.22. For the variant U12C U15C U20C A59U U85C U112C A121U, the self-cleavage came out at 0. As for U12C U47A U96G, the self-cleavage amounted to 0.26. Consider U12C U23A U73C A140G, for which the self-cleavage came out at 0.45. With U12C G32C U47C U73C U119A A121U U143C the figure was 1.53. For the variant U12C U29C G40A U47A U119C, the self-cleavage is 1.52. With U12C U39C G88A the figure was 0.08; with U12C U39C U109C A136G, 0.84. In the case of U12C U14C G48A U115C, the self-cleavage is 1.02.

With U12C U14C A64C, the self-cleavage was determined as 0.4. With U12C U20C U47C U119A the figure was 1.04; with U12C U62C A117U U119C, 0.14; with U12C G33U U45A A117U G137A, 1. Regarding U12C G49U U81C, the self-cleavage came out at 0.62. As to U12C U13C A22G G27U A138U, the self-cleavage was found to be 1.29. With U12C U45C C103A U119C A121G, the self-cleavage was determined as 1.2. To U12C G27A C63A belongs 0.01. With U12C U45G U102C U134C, the self-cleavage turned out to be 0.79. With U12C G25A U87A the figure was 0.

With U12C U23A A50U U115A, the self-cleavage turned out to be 0.36.

Take U12C U23C A64G U73C: the self-cleavage was found to be 1.67. As for U12C U62A C84G, the self-cleavage is 0.12. With U12C U15A U47G A69U A107G the figure was 0; with U12C U46A A79U C95U A140U, 0.22; with U12C U15C A43G G106A A117G, 0.88.

With U12C U46C G105A A129G A140U, the self-cleavage turned out to be 1.75. With U12C U13C U14C C56U U100C U134C A141G A142G the figure was 2.16; with U12C G35A U39C U52A, 1.73; with U12C U26A C71A, 0.07.

For U12C U20C A43U A50G A59C, the self-cleavage is 0. With U12C U46A U85C the figure was 0.21. With U12C U39C U91A U108C the figure was 0.77; with U12C U96G A121C A124U, 0.17. To U12C U13C G54U belongs 1.15; to U12C U20C U26C A94G A141C A142U, 0; to U12C U62C U104C, 0.23. As to U12C G35A C38U A57U U73C A78G G106U A117G G144U, the self-cleavage worked out at 0.04. With U12C U13C G40A A121G C131U the figure was 1.19; with U12C U73A A79U U85A, 0.11. To U12C U45A U119C A124G U132C belongs 0.46; to U12C G32A A138U, 0.22. Consider U12C U15C A136G, for which the self-cleavage is 1.31.

Turning to U12C U62C A69U, the self-cleavage worked out at 0.08. On to U12C U47A U100C A136G, for which the self-cleavage stood at 1.86.

Regarding U12C U45C A138G, the self-cleavage amounted to 1.19. Regarding U12C U13C A42G A92U G125A, the self-cleavage was 1.39. With U12C U13C G93A the figure was 0.07. With U12C U26C U46C the figure was 0.88; with U12C G32A C146U, 0.72; with U12C U29A A142U, 1.21. With U12C U39C U119C the figure was 2.57. For the variant U12C U13C G35U A50U, the self-cleavage came out at 1.27. For the variant U12C U29C C131G, the self-cleavage is 1.79. With U12C U47C G54U A65G the figure was 0.14; with U12C U62C U109C, 0. With U12C U26A U29A U46A U104C A138U the figure was 0.91; with U12C U29A A59G C98U, 0.2; with U12C G33C A57G, 1.11. Consider U12C G36A G54A U130C U134C, for which the self-cleavage came to 1.04. Turning to U12C U23C U102C, the self-cleavage was determined as 0. Regarding U12C G35U A57G U100C U115G, the self-cleavage turned out to be 0. To U12C U62C A78U belongs 0.02; to U12C U14C U45C U73C, 1.84. With U12C U13C G48A A78G the figure was 0.78; with U12C U13C U87A A92G G126A A140G, 0.61; with U12C G53A A79G, 1.27. As to U12C U14A U104C, the self-cleavage came out at 1.46. To U12C U47A A67G A129U A142G belongs 1.06; to U12C U62C A138G, 0; to U12C G86U U91C U115C, 0.23. To U12C U15C G21U U112C belongs 0.61; to U12C U100A U119G, 1.25; to U12C U46C C66U A79G, 0.06.

Consider U12C U52A U102A A117U A124G, for which the self-cleavage amounted to 2.04. Turning to U12C U87A U132C U143C, the self-cleavage was 0.29.

Consider U12C U109C U112C, for which the self-cleavage was determined as 0.97.

Regarding U12C U52A A57G U96C U104C, the self-cleavage is 1.97. In the case of U12C G86A A124C, the self-cleavage was 0.39. As to U12C G49A A92G, the self-cleavage was determined as 0.29. To U12C U46C U62A belongs 0. To U12C U29C A129U belongs 1.64; to U12C G54A A69G U85G, 0.16; to U12C U14C A67G, 0.42. As for U12C U100C A142G, the self-cleavage came out at 2.53. To U12C U47A C84U U115A C123G A124G belongs 0.07; to U12C U15C U52C, 1.62; to U12C G32A A64G U108A U130C A141G, 0.24. With U12C U20A A64C the figure was 0.57; with U12C U20C U46C, 0.95.

For the variant U12C U14C U47C A136U, the self-cleavage was determined as 0.73.

With U12C G54A U73C A140G, the self-cleavage was 0.4.

On to U12C G106A U108C, for which the self-cleavage is 1.88. To U12C U62C U73A belongs 0.02. To U12C U102C C116U belongs 2.03; to U12C U52A A64G U85C, 0.87. For U12C U39C A94G, the self-cleavage worked out at 0.38. Take U12C U81G U112A: the self-cleavage came out at 1.

For the variant U12C U45C G54C A65U, the self-cleavage is 0.07. With U12C U87G U143C, the self-cleavage was found to be 0.15.

Turning to U12C U47A U62C G114U, the self-cleavage is 0. With U12C U26C G54C C56A U115A the figure was 0.31; with U12C G32A A43G, 1.23; with U12C U81A U109C A142C, 0.38. With U12C U62A A67U A79G the figure was 0.04; with U12C U46A A136G, 1.56. With U12C U46C A67G the figure was 1.25.

Consider U12C U23C U87A, for which the self-cleavage is 0.67. To U12C U29C G89A belongs 0.17; to U12C U46C G53A U130C A141G, 0.77; to U12C U20C A50U U85A, 0.2. With U12C U62G U73G C90U, the self-cleavage came out at 0.09. To U12C G48U U102C belongs 0.69; to U12C U62C A140U, 0.07. To U12C U20C U109G A121U belongs 0.34. As for U12C G83C A94G A142G, the self-cleavage amounted to 0.64.

As for U12C G48A C68A U119C, the self-cleavage turned out to be 0.03. With U12C U26C A69U the figure was 1.84; with U12C G35A U46C U73C C98A, 0.3; with U12C U73C U96C, 0.66. To U12C U100C A141G belongs 0.6; to U12C G36A G48A U96G U109C, 0.1; to U12C U52A U115C U134C, 1.43. With U12C U13C U23A A24G A31G the figure was 1.31. Regarding U12C G41U A50U U52C A59G U96C U108C, the self-cleavage is 0.

With U12C G127C A136U, the self-cleavage was 1.51. Turning to U12C G72A U134A, the self-cleavage was determined as 1.23. To U12C U47A U52C G83A belongs 1.09; to U12C U26A U115A A124U, 1.15; to U12C U108C U130C, 0. Take U12C U23C G32A A64G: the self-cleavage came out at 0.6. To U12C U100A U132G belongs 1.63; to U12C G35A U45C U73C G75A U96C U115C, 0.48; to U12C G74A U119C, 1.23. With U12C U26C A43U U45C the figure was 2.16. With U12C U47A A67G U96A the figure was 0.19; with U12C U14C G72A, 1.17. For U12C U20C U62A C95A U130C, the self-cleavage is 0.1. Regarding U12C U29C A77U U132A, the self-cleavage turned out to be 1.23. With U12C U104A U132C the figure was 0.36; with U12C U13C C19U G55C U85C A92G U96A, 0.

Consider U12C U87A A92G, for which the self-cleavage worked out at 0.09. For U12C U26C A121G A141G, the self-cleavage was found to be 2.3. To U12C U20C A30U U47C A64U U143C belongs 0.67. To U12C U46C A138G belongs 2.42; to U12C U47G A57U U134C, 0.09; to U12C U45C G126U, 0.6. To U12C U14C U87G C131U belongs 0.04; to U12C U13C G33A, 1.23. On to U12C U13C U14C, for which the self-cleavage is 1.04. To U12C U20C G54A A117U U143C belongs 1.22. Take U12C U47C U81C A136U: the self-cleavage is 1.39. To U12C U29C C120U A142G belongs 0.68. To U12C U52A A92U C120U G126U belongs 1.06; to U12C U13C G88A U112C U119A U130A A138U, 0.08. To U12C U39A U143C belongs 1.57; to U12C U14C A69G C76U A79G U119G, 0; to U12C U100C U104A, 2.08. U12C U29G C51U A79G U85C A141G: the self-cleavage is 0.38. To U12C U13A U26A G49U U115C U143C belongs 0.74.
